Experimental data reported in the supplement of paper PMC10369915.
The other results are listed elsewhere or left out. No stated cut-off is given here; in the data, active = 3.2 or more and inactive = the rest. The signal is at background level for most entries.

Columns and labels:
Test in all cases: enrichment score (SH2-bound / input frequency) (ratio); bacterial display of known human phosphotyrosine sites (pTyr-Var adds point mutants) read by sequencing; higher = stronger binding; tyrosines were phosphorylated by kinases first
Details in all cases: peptide library: pTyr-Var
SHP2 C-SH2 domain E139D = target: SHP2 C-SH2 domain E139D
[1] = target: SHP2 C-SH2 domain wild-type
SHP2 N-SH2 domain L43F = target: SHP2 N-SH2 domain L43F
SHP2 N-SH2 domain T42A = target: SHP2 N-SH2 domain T42A
SHP2 N-SH2 domain T52S = target: SHP2 N-SH2 domain T52S
[2] = target: SHP2 N-SH2 domain wild-type
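Further: displayed peptides selected on beads carrying the immobilized SH2 domain, with library peptides lacking any tyrosine serving as negative controls.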

Row | Binder | enrichment score (SHP2 C-SH2 domain E139D) | enrichment score [1] | enrichment score (SHP2 N-SH2 domain L43F) | enrichment score (SHP2 N-SH2 domain T42A) | enrichment score (SHP2 N-SH2 domain T52S) | enrichment score [2]
1 | LLKANYELLNA [POLR3A_Y714_K713N] | inactive: 1.13 | inactive: 1.12 | inactive: 0.982 | inactive: 1.26 | inactive: 1.09 | inactive: 1.24
2 | PKFHSYVSLPF [PLXNA2_Y293] | inactive: 1.55 | inactive: 1.76 | inactive: 1.64 | active: 3.86 | inactive: 1.35 | inactive: 0.99
3 | KRRGPYEMSPS [PLPP7_Y172_T174M] | inactive: 0.281 | inactive: 0.192 | inactive: 0.237 | inactive: 0.252 | inactive: 0.192 | inactive: 0.237
4 | VVEDGYEFFAK [PPP1CB_Y254] | inactive: 0.71 | inactive: 0.622 | inactive: 0.587 | inactive: 0.623 | inactive: 0.723 | inactive: 0.51
5 | ADARMYGVHPW [PLP1_Y207_L210H] | inactive: 0.927 | inactive: 0.821 | inactive: 0.707 | inactive: 0.633 | inactive: 0.803 | inactive: 1.12
6 | QSHKVYFQHLL [POR_Y604_V605F] | inactive: 1.31 | inactive: 0.975 | inactive: 1.15 | inactive: 0.68 | inactive: 0.943 | inactive: 1.09
7 | NGLVACKDGKL [PMM2_Y76_Y76C] | inactive: 0.689 | inactive: 0.561 | inactive: 0.567 | inactive: 0.501 | inactive: 0.611 | inactive: 0.653
8 | RDLRTYIMPAH [PNMT_Y256] | inactive: 1.14 | inactive: 1 | inactive: 1.62 | inactive: 1.9 | inactive: 1.78 | inactive: 1.05
9 | SLTGAYTSGIP [POM121C_Y378] | inactive: 0.701 | inactive: 0.718 | inactive: 0.738 | inactive: 0.616 | inactive: 0.796 | inactive: 0.74
10 | ADARMCGVLPW [PLP1_Y207_Y207C] | inactive: 0.766 | inactive: 0.898 | inactive: 0.847 | inactive: 0.69 | inactive: 0.676 | inactive: 1.05
11 | LRGVIYVILRK [PMP22_Y153_S149R] | inactive: 0.43 | inactive: 0.268 | inactive: 0.226 | inactive: 0.172 | inactive: 0.344 | inactive: 0.255
12 | LNTFHYAGVSA [POLR2A_Y1109] | inactive: 1.07 | inactive: 1.11 | inactive: 0.896 | inactive: 1.24 | inactive: 0.999 | inactive: 1.24
13 | EELLHYAIVTP [POC5_Y37] | inactive: 1.1 | inactive: 2.36 | inactive: 2.91 | inactive: 2.85 | active: 3.35 | inactive: 1.18
14 | SLTGAYASGIP [POM121C_Y378_T379A] | inactive: 0.711 | inactive: 0.572 | inactive: 0.75 | inactive: 0.557 | inactive: 0.607 | inactive: 0.656
15 | LSGVIYVILRK [PMP22_Y153] | inactive: 0.862 | inactive: 0.767 | inactive: 0.548 | inactive: 0.968 | inactive: 0.631 | inactive: 0.723
16 | DTNIAYCLHPR [POMT1_Y581_W582C] | inactive: 0.886 | inactive: 1.38 | inactive: 0.901 | inactive: 1.07 | inactive: 0.984 | inactive: 1.33
17 | KLIETYFSKNF [PLP1_Y50_YF] | inactive: 1.18 | inactive: 0.993 | inactive: 0.956 | inactive: 0.758 | inactive: 0.853 | inactive: 0.828
18 | DFPGNYSGYDD [POLR1C_Y33] | inactive: 0.666 | inactive: 0.789 | inactive: 0.626 | inactive: 0.876 | inactive: 0.744 | inactive: 0.941
19 | ERIELYELDKK [PMM2_Y145_F144L] | inactive: 0.621 | inactive: 0.641 | inactive: 0.772 | inactive: 0.549 | inactive: 0.663 | inactive: 0.784
